Assay results as given in PubChem BioAssay (Tox21).
“And” between values parts separate entries of the source, which are not always exact repeats. Equal values may be shown once. The shares of active, inactive and inconclusive entries below differ from those in the screen. Potencies of inconclusive entries are doubtful fits and often do not repeat. The source made the active and inactive calls. Calls come from the whole dose curve; as a rule, active = well fitted activation curve with a large enough effect in the repeat runs; inconclusive = weak or mixed curves; inactive = no such curve, though single readings can be large or run the other way.
% is set by controls: 0 for no effect and ±100 for the full control effect; potency is the fitted concentration of half-maximal effect; tags give direction and shape of the fitted curve.

The compounds below were run against Aryl hydrocarbon receptor (Homo sapiens) (UniProt P35869) (assay: qHTS assay to identify small molecule that activate the aryl hydrocarbon receptor (AhR) signaling pathway (AID 743085; note: nearly all actives have a fitted effect of over 15% in size;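 for activation: HG2L7.5c1 human HepG2 liver cells with stably integrated DRE-driven firefly reporter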)). Conditions: HepG2 AhR-luc (HG2L7.5c1), luciferase, 24 h; series mostly up to 70.3 µM; activation: at the top concentration.
Sequence of UniProt P35869 (P35869 whole entry, looked up): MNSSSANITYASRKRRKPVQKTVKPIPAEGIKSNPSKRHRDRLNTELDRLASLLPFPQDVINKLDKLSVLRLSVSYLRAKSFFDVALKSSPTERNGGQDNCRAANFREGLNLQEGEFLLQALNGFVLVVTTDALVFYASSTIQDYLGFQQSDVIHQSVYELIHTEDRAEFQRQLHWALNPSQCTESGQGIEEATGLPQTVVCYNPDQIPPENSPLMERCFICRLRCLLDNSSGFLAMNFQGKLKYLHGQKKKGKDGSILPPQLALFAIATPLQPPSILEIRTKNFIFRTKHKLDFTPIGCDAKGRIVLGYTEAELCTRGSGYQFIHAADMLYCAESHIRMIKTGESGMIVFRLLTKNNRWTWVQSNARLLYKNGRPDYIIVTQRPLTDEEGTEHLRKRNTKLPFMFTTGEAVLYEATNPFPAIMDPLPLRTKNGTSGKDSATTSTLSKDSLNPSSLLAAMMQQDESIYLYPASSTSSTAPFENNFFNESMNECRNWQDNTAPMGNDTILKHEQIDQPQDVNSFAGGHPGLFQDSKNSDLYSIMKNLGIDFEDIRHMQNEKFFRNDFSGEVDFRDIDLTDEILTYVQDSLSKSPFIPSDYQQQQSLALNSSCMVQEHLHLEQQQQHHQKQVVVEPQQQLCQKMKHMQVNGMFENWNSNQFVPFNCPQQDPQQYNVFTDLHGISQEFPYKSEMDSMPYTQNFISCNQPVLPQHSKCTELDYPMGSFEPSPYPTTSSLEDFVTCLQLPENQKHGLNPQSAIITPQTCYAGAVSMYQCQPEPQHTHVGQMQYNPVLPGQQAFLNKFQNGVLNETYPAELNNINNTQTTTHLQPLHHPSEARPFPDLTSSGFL
Excerpt: U.S. Tox21 Program National Center for Advancing Translational Sciences [NCATS] NIH Chemical Genomics Center [NCGC] U.S. Environmental Protection Agency [EPA] National Institutes of Environmental Health Sciences [NIEHS] National Toxicology Program [NTP] U.S. Food and Drug Administration [FDA] Tox21 Assay overview: The Aryl hydrocarbon Receptor (AhR), a member of the family of basic helix-loop-helix transcription factors, is crucial to adaptive responses to environmental changes. AhR mediates cellular responses to environmental pollutants such as aromatic hydrocarbons through induction of phase I and II enzymes but also interacts with other nuclear receptor signaling pathways. A cell based HepG2-AhR-luc assay (HG2L7.5c1 cell line, developed by Dr. Michael S. Denison, University of California at Davis, was used to assess the activation of AhR. HepG2 (human hepatocellular carcinoma) cells were stably transfected with an Ah receptor-responsive firefly luciferase reporter gene plasmid containing 20 dioxin responsive elements and luciferase reporter gene. Increased luciferase activity can be used to identify the compounds that induce AhR activation.
Tox21 Assay Protocol Summary: 4000 cells in 5 uL/well were dispensed into white wall/solid bottom 1536-well plates using a Multidrop Combi (Thermo Fisher Scientific Inc., Waltham, MA) dispenser. After the assay plates were incubated at 37C for 5 h, 23 nL of compound or DMSO vehicle was transferred to the assay plates by a pintool station (Kalypsys, San Diego, CA). The plates were incubated at 37C for 24 hr. After 1 ul/well of CellTiter-Fluor reagent (Promega, Madison, WI) was added into the assay plates using a Flying Reagent Dispenser (FRD) (Aurora Discovery, CA), the assay plates were incubated at 37C for 30 min. The fluorescence intensity in the plates was measured using a ViewLux plate reader (PerkinElmer, Shelton, CT), followed by the addition of 4 uL of ONE-Glo Luciferase Assay reagent (Promega) using an FRD (Aurora Discovery). After the assay plates were incubated at room temperature for 30 min, luminescence intensity was measured using a ViewLux plate reader (Perkin Elmer).
With CCC[N+](CCC)(CCC)CCC the “activation” value was inactive: -1.32%.
In the case of CC1(C)COP(Oc2ccccc2)OC1, the “activation” value is reported as inactive: -1.09%.
With CCOC(=O)C(SP(=S)(OC)OC)c1ccccc1 (stereo not given) the Potency was inconclusive: 68.6 µM [activator].
O=c1c2ccccc2[se]n1-c1ccccc1 was tested, and the Potency was inconclusive: 18.8 µM [activator, partial curve].
For Fc1ccc(C2(Cn3cncn3)OC2c2ccccc2Cl)cc1 (stereo not given), the Potency was inconclusive: 61.1 µM [activator, partial curve, poor fit].
Clc1ccc(C2(Cn3cncn3)CC(Br)CO2)c(Cl)c1 (stereo not given) was tested, and the Potency was inconclusive: 34.2 µM [activator, partial curve, poor fit].
For Brc1c2ccccc2cc2ccccc12, the “activation” value was inactive: 1.52% [at 95 µM].
In the case of CCN(CC)C(=O)N[C@H]1C[C@@H]2c3cccc4[nH]cc(c34)C[C@H]2N(C)C1, the Potency is reported as inconclusive: 29.8 µM [activator, partial curve].
In the case of COc1ccc2c(C(=O)c3ccc(Cl)cc3)c(C)n(CC(=O)O)c2c1, the Potency is reported as active: 33.5 µM.
For CCC1COC(Cn2cncn2)(c2ccc(Cl)cc2Cl)O1 (stereo not given), the Potency was inconclusive: 61.1 µM [activator].
CCSC(=O)N1CCCCCC1 was tested, and the Potency was “inactive”.
CC(C)C[C@H]1C(=O)N2CCC[C@H]2[C@]2(O)O[C@](NC(=O)[C@@H]3C[C@@H]4c5cccc6[nH]cc(c56)C[C@H]4N(C)C3)(C(C)C)C(=O)N12 was tested, and the Potency was inconclusive: 9.44 µM [activator, partial curve, poor fit].
For CCOC(=O)NC(=S)Nc1ccccc1NC(=S)NC(=O)OCC, the Potency was inconclusive: 27.3 µM [activator, partial curve].
With CCOP(=S)(Oc1ccc([N+](=O)[O-])cc1)c1ccccc1 (stereo not given) the Potency was inconclusive: 61.1 µM [activator, partial curve, poor fit].
For Cc1nnc2n1-c1ccc(Cl)cc1C(c1ccccc1Cl)=NC2, the Potency was inconclusive: 33.5 µM [activator, partial curve, poor fit].
In the case of CC(Cc1ccccc1)NCc1ccccc1Cl (stereo not given), the Potency is reported as inconclusive: 29.8 µM [activator, partial curve, poor fit].
For CC1=NNC(=O)N(/N=C/c2cccnc2)C1, the Potency was inconclusive: 54.5 µM [activator, partial curve].
In the case of CCCN(CCC)C(=O)Cc1c(-c2ccc(Cl)cc2)nc2ccc(Cl)cn12, the Potency is reported as inconclusive: 13.3 µM [activator, partial curve].
For Nc1ccc(Oc2ccc(N)cc2)cc1, the Potency was active: 11 µM and inconclusive: 61.1 µM [activator, partial curve, poor fit].
c1cc(OCC2CO2)cc(OCC2CO2)c1 (stereo not given) was tested, and the “activation” value was inactive: -3.81%.
With S=c1[nH]c2ccccc2[nH]1 the Potency was active: 68.6 µM.
Brc1ccc(Br)cc1 was tested, and the Potency was “inactive”.
In the case of CCCOc1nn(C(=O)NS(=O)(=O)c2ccccc2C(=O)OC)c(=O)n1C, the Potency is reported as inconclusive: 68.3 µM [activator, partial curve, poor fit].
With CCOP(=S)(Oc1cnc(C(C)(C)C)nc1)OC(C)C (stereo not given) the Potency was active: 54.5 µM.
For Cc1c(N)cccc1N, the Potency was active: 27.9 µM.
For O=C1CCCN1, the Potency was “inactive”.
In the case of CCOP(=S)(OCC)SCSP(=S)(OCC)OCC, the Potency is reported as inconclusive: 61.1 µM [activator, partial curve].
O=C(CCCN1CCC(n2c(=O)[nH]c3ccccc32)CC1)c1ccc(F)cc1 was tested, and the Potency was inconclusive: 11.4 µM [activator, partial curve].
CCOc1ccc2c3c1O[C@H]1[C@@H](O)C=C[C@H]4[C@@H](C2)N(C)CC[C@@]341 was tested, and the Potency was inconclusive: 33.5 µM [activator, partial curve, poor fit].
With CC(=O)[O-].CC(=O)[O-].CC(=O)[O-].[Cr+3] the “activation” value was inactive: 0.148%.
With Cc1ccccc1CO[C@@H]1C[C@@]2(C(C)C)CC[C@]1(C)O2 the Potency was inconclusive: 43.3 µM [activator, partial curve, poor fit].
For COP(=S)(OC)Oc1c(Cl)cc(C)cc1Cl, the Potency was active: 48.6 µM.
Cc1cc(C)cc(C(=O)OC2C[C@H]3CC[C@@H](C2)N3C)c1 (stereo not given in full) was tested, and the Potency was inconclusive: 33.5 µM [activator, partial curve, poor fit].
COc1ncc(F)c2nc(S(=O)(=O)Nc3c(F)cccc3F)nn12 was tested, and the “activation” value was inactive: 3.01%.
For CCN(CC)Cc1nccn1-c1ccc([N+](=O)[O-])cc1C(=O)c1ccccc1Cl, the Potency was inconclusive: 29.8 µM [activator, partial curve, poor fit].
Nc1cnn(-c2ccccc2)c(=O)c1Cl was tested, and the Potency was inconclusive: 76.8 µM [activator, partial curve, poor fit].
With C=C[C@H]1CN2CC[C@H]1C[C@H]2[C@H](OC(=O)OCC)c1ccnc2ccc(OC)cc12 the Potency was inconclusive: 29.8 µM [activator, partial curve, poor fit].
With F/C(COc1ccc2c(c1)[nH]c1ccccc12)=C1/CN2CCC1CC2 the Potency was active: 10.6 µM.
For CCOP(=S)(OCC)Oc1ccc([N+](=O)[O-])cc1, the Potency was active: 31 µM and active: 10.6 µM.
O=c1[nH]c(Cl)c(Cl)cc1Cl was tested, and the Potency was inconclusive: 54.5 µM [activator, partial curve, poor fit].
